For the assay, the target named is human CCR8 (human) (UniProt P51685). In words: flow cytometry, primary human Tregs, purified antibody 20 ug/ml. (In flow cytometry, cells or beads pass a laser one at a time.)

A number of entries come with more than one value. This list holds those alone. There may be further records. The records of an entry appear to be repeats (runs, samples, wells or individuals); one of them may be the mean.

Chain of UniProt P51685 (P51685 whole entry): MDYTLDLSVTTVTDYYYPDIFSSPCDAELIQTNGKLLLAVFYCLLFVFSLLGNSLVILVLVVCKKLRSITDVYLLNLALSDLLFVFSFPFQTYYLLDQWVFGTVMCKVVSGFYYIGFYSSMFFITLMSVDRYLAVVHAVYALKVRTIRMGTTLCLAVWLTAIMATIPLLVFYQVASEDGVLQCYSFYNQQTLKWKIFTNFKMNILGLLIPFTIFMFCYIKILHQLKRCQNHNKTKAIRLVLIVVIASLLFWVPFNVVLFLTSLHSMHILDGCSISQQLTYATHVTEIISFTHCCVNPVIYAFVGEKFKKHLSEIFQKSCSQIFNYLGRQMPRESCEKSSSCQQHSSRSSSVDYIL
Chain of anti-human CCR8 antibody clone 433H (BD 747578) (VH): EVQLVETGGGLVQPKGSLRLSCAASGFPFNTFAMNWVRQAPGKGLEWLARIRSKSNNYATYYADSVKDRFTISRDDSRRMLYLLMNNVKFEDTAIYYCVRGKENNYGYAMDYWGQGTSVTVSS
Chain of anti-human CCR8 antibody clone 433H (BD 747578) (VL): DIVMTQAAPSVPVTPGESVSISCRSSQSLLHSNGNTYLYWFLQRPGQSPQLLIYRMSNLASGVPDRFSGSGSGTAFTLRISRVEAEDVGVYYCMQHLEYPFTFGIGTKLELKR

Turning to “anti-human CCR8 antibody clone 433H (BD 747578)”, the CCR8+CD127-CD25+CD4, % positive was 83.4%, 29.4%, 67.5% [columns of one line].

The values above are taken from patent US20250171549A1.
